According to PMC4336329 (PLoS ONE, 2015):
Hit rate of the full screen: of about 310,000 compounds, about 14,000 (4.5%) showed an effect of 50% or more. The effect is printed as a negative number. Some of the results follow.

target: human ether-à-go-go-related gene (hERG) potassium channel (human, UniProt Q12809); test: primary screen, population patch clamp on CHO cells stably expressing hERG
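Note: peak tail current of the secondary pulse compared with the same well before compound.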

human ether-à-go-go-related gene (hERG) potassium channel, sequence (Q12809 whole entry, looked up): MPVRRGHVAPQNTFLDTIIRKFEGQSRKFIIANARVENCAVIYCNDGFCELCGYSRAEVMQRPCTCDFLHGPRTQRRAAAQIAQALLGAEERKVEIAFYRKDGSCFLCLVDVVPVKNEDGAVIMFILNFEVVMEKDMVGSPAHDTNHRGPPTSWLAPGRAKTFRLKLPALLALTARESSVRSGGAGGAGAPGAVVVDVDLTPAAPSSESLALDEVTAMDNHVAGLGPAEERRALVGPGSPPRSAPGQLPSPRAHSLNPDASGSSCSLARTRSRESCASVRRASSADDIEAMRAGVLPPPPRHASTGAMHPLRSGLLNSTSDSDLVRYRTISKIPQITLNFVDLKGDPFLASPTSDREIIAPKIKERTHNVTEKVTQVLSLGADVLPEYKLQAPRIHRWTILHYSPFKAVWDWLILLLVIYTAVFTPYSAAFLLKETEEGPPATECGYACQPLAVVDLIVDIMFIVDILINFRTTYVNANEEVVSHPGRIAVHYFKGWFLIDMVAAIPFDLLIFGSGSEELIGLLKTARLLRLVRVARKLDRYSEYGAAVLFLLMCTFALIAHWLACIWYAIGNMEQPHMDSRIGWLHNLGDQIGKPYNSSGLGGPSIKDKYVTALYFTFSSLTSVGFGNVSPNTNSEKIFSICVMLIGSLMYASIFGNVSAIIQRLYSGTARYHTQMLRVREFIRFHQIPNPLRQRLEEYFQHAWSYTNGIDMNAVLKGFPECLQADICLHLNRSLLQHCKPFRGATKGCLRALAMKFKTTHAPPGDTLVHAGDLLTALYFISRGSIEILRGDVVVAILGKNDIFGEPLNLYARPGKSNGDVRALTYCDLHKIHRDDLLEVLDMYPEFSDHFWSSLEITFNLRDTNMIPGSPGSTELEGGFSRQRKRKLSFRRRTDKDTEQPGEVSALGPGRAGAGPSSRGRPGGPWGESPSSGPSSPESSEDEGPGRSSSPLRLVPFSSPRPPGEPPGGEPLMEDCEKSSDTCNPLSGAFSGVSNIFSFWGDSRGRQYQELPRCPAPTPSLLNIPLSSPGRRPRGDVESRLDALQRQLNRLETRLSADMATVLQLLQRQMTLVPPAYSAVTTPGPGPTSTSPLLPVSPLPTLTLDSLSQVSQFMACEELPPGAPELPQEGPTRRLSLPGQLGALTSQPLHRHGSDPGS

SMILES | hERG current change (%, negative = inhibition) at 10uM
CN(CC(=O)Nc1ccc(Cl)c(C(F)(F)F)c1)C(=O)Cc1cccs1 | -23%
Cc1cc(-c2ccc(F)cc2)nc2cc(C(N)=O)nn12 | 8.55%
COc1ccc(C)cc1NC(=S)N1CC(C)OC(C)C1 (stereo not shown) | -11.5%
CN(C)CCn1c2c(c(SCC(=O)Nc3cccc4ccccc34)nc1=O)CCC2 | -13.6%
Clc1ccc2nc3c4ccccc4cnn3c2c1 | 24.2%
COc1ccc2[nH]c3c(=O)n(/N=C/[C@H]4C(C)C=C(C)CC4C)c(=O)[nH]c3c2c1 (stereo partly shown) | 3.22%
Cc1nc2c(-c3ccccc3)c(C)nn2c(N)c1-c1ccccc1 | 19.4%
COCc1cc(C)nc(SCC(=O)Nc2ccc3[nH]c(=O)[nH]c3c2)c1C#N | 10.8%
O=C(COc1ccc2ccc(=O)oc2c1)NCc1ccccn1 | 11.8%
Cc1ccc(CN(C(=O)COc2ccc(Br)cc2)C2CCS(=O)(=O)C2)o1 (stereo not shown) | -33.5%
CCc1ccccc1Nc1nn2c(=O)c3ccc(C(=O)NCc4ccccn4)cc3nc2s1 | -4.54%
O=C(NC1CCCCCCC1)c1cnccn1 | 1.67%
COc1ccc(C)cc1NC(=O)CCNS(=O)(=O)c1cccc2nonc12 | 7.7%
O=C(CNS(=O)(=O)c1ccccc1)NCC(=O)N1CCCCC1 | 17.2%
CC(C)(C)C(=O)Nc1ccccc1C(=O)Nc1cc(Cl)ccc1Cl | -4.7%
CCCNC(=O)COC(=O)c1ccccc1C(=O)N(C)C1CCCCC1 | 14.6%
CCOc1ccc(NC(=O)N(CCN(C)C)C(C)c2cccnc2)cc1 (stereo not shown) | 6.87%
O=C(c1cccc(S(=O)(=O)N2CCCC2)c1)N1CCN(c2ncccn2)CC1 | -8.91%
CCc1ccc(NS(=O)(=O)c2cc(OC)ccc2OC)cc1 | -7.37%
Cc1ccc(CCNC(=O)CSCc2ccc(F)cc2)cc1 | -14.1%
Cc1cccc(N(CC(=O)N2CCCC2)S(=O)(=O)c2ccccc2)c1 | -34.7%
O=C(c1ccc(F)cc1)C1CCN(C(=S)Nc2ccc(F)cc2)CC1 | -57.2%

SMILES | hERG current change (%, negative = inhibition) at 10uM
CC(=O)CSc1ncnc2c1cnn2-c1ccccc1 | 12.6%
CN1CCN(c2ccc(NC(=O)c3ccc(-c4cccc([N+](=O)[O-])c4)o3)cc2)CC1 | 5.35%
Cc1cc(C)c(C(=O)N(CCN(C)C)CC2CCCN(Cc3ccccc3F)C2)o1 (stereo not shown) | 7.61%
Cc1ccc2c(c1)NC(C(C)(C)C)CO2 (stereo not shown) | 4.65%
CC1(c2ccc(OC(F)F)cc2)NC(=O)N(CC(=O)Nc2ccc(OC(F)F)cc2)C1=O (stereo not shown) | -94.9%
CCn1c(SCC(=O)O)nnc1-c1ccccc1 | 17.4%
Cc1ccc(Nc2nc(N)nc(CSc3nc(C)cc(C)n3)n2)cc1 | 3.09%
Cc1cccc(C)c1NC(=O)C(c1ccccc1)N1CCN(C(=O)c2ccco2)CC1 (stereo not shown) | -22.8%
C/C(=N\NC(=O)CCC(=O)Nc1ccccc1)c1cccs1 | 15.5%
Cc1sc(NC(=O)CSc2nnc3scc(-c4ccccc4)n23)c(C#N)c1C | 13.9%
Cc1ccc(S(=O)(=O)NCC(=O)N/N=C/c2ccccc2O)cc1 | 6.96%
Cc1ccc(N(Cc2ccc([N+](=O)[O-])cc2)C(=O)c2ccco2)cc1 | -35%
CCC(C)(C)n1nnnc1C(C(C)C)N(Cc1cccnc1)Cc1ccco1 (stereo not shown) | -2.92%
O=C(NCc1cccc(Cl)c1)c1ccc2ccccc2n1 | -23.6%
CN(C)c1ccc(NC(=O)CN2CCN(CC(=O)Nc3ccc(F)cc3)CC2)cc1 | -77.1%
O=C(N/N=C/C=C/c1ccccc1)C1CC1(c1ccccc1)c1ccccc1 (stereo not shown) | -1.54%
O=S(=O)(c1ccccc1)N1CCN2CCCC2C1 (stereo not shown) | 15.9%
Br.O=C(CN1C2=NCCCN2c2ccccc21)c1ccc(Br)s1 | -67.2%
O=C(OCCCc1ccncc1)c1ccc(S(=O)(=O)N2CCOCC2)cc1 | -3.75%
Cc1ccnc(NC(=O)c2ccc(Cl)c(NC(=O)CCc3ccccc3)c2)c1 | 0.468%
CCCCSCc1[nH]c(=O)[nH]c1C(=O)CCCCC(=O)OCC | -13.8%
O=C(Nc1ccc(C(=O)N2CCOCC2)cc1)c1cnn2c(C(F)F)cc(-c3ccccc3)nc12 | -32%

SMILES | hERG current change (%, negative = inhibition) at 10uM
O=C(O)COc1ccc2c3c(c(=O)oc2c1)CCCC3 | 34.7%
COc1ccc(C(=O)COC(=O)CCS(=O)(=O)c2ccc(C)cc2)c(OC)c1 | -25.8%
Cc1ccc(-c2ccc3nnc(SCC(N)=O)n3n2)cc1 | -3.82%
Cc1cc(OCC(=O)Nc2ccncc2)c(C)cc1Br | 9.78%
Cc1c(OC(C)C(=O)NCC(O)c2ccccc2)ccc2c3c(c(=O)oc12)CCCC3 (stereo not shown) | 0.251%
CCC(=O)c1ccc(OCC(=O)Nc2nc(-c3cccnc3)cs2)cc1 | -4.61%
Cc1ccc(C)c(CN2CCCNC2=O)c1 | -4.29%
N#Cc1cc(-c2ccccc2)nnc1Oc1ccccc1 | 9.99%
OC1(c2cccc(C(F)(F)F)c2)CCN(CCN2CCCCC2)CC1 | -3.82%
COc1ccc(C2C(C#N)=C(N)N(N(C)C)C3=C2C(=O)CCC3)cc1 (stereo not shown) | 9.88%
CCc1cccc(NC(=O)C2CCCN2S(=O)(=O)c2ccc3c(c2)n(C)c(=O)c(=O)n3C)c1 (stereo not shown) | -9.62%
CC(C)(C)Nc1nc(Cl)nc(Nc2ccccc2)n1 | -5.99%
CCCC1NC(=S)N(C2CCCCC2)C1=O (stereo not shown) | 6.08%
Cn1c(=O)c(C(=O)NNC(=O)c2ccccc2Cl)c(O)c2ccccc21 | -3.01%
COc1ccc(/C=C/C(=O)c2ccc([N+](=O)[O-])o2)cc1OC | 6.96%
COc1ccc(CNC(=O)Cn2nc([N+](=O)[O-])c(Br)c2C)cc1 | -15.5%
CCOC(=O)C1=C(CNCCc2ccc(Cl)cc2)NC(=O)NC1c1ccc2c(c1)OCO2 (stereo not shown) | -20.8%
CCOC(=O)c1ccc(NS(=O)(=O)c2c(C)n[nH]c2C)cc1 | -9.76%
Cc1ncc(CO)c(/C=N/NC(=O)c2cccc(S(=O)(=O)N3CCCC3)c2)c1O | 15.5%
N/C(=N\OC(=O)/C=C/c1ccccc1)c1ccccc1 | 3.82%
CC(C)Oc1ccccc1C1(c2ccccc2)NC(=O)NC1=O (stereo not shown) | 12.2%
Cc1ccc2c(c1)NC(=O)C(CC(=O)NCCCN1CCCCC1C)O2 (stereo not shown) | -4.68%

SMILES | hERG current change (%, negative = inhibition) at 10uM
O=C1C2C3C=CC(C3)C2C(=O)N1Nc1c(Cl)cc(Cl)cc1Cl (stereo not shown) | 3.63%
COc1cc(/C=C/C(=O)OCC(=O)NC(=O)NC23CC4CC(CC(C4)C2)C3)ccc1OCC#N | 10.7%
COc1ccc(CCNC(=O)C2CCCN(S(=O)(=O)c3cnc[nH]3)C2)cc1OC (stereo not shown) | 8.77%
O=Cc1ccc(Oc2cc(-c3ccccc3)nc(-c3ccccc3)n2)cc1 | 11.5%
COc1cc(OC)c2c(-c3ccccc3)cc(=O)oc2c1C(CC(=O)N1CCCC1)c1ccc2c(c1)OCO2 (stereo not shown) | -0.732%
CC1=[N+]([O-])C(N2CCOCC2)C(O)(c2ccccc2)C1 (stereo not shown) | 9.09%
Cc1nnc(SCC(=O)N2CCCC2)n(N)c1=O | 14.1%
c1ccc(CN2CCCC3(CCCN(Cc4nc(CC5CC5)no4)C3)C2)cc1 (stereo not shown) | -52.1%
O=C(NCC1CCCO1)c1cccc(Oc2ccc([N+](=O)[O-])cc2)c1 (stereo not shown) | -73.7%
Br.Cc1cccc(C2CN(C)CCc3c2cc(O)c(O)c3Cl)c1 (stereo not shown) | -51.1%
CCOC(=O)c1ccc(N2C(=O)CC(N3CCC(C(N)=O)(N4CCCCC4)CC3)C2=O)cc1 (stereo not shown) | 17.4%
CCN(C(=O)CN1CCN(c2cccc(C(F)(F)F)c2)CC1)c1c(N)n(Cc2ccccc2)c(=O)[nH]c1=O | -20.3%
OC(COc1ccc2ccccc2c1)Cn1ccnc1 (stereo not shown) | -12.1%
O=C(NCc1ccccc1)N[C@@H](Cc1ccccc1)C(=O)O | 5.79%
S=C(c1cn(CCOc2cccc3ccccc23)c2ccccc12)N1CCCC1 | 0.42%
COc1ccc(NC(C)=O)cc1NC(=O)c1cccc(S(=O)(=O)N2CCc3ccccc32)c1 | -40.1%
Cc1cc(C(=O)CN2C(=O)C(=O)N(Cc3ccccc3)C2=O)c(C)n1Cc1ccc(F)cc1 | 8.39%
CCCCCCCC(=O)NN1CCOCC1 | 10.1%
COc1ccc2cc(-c3[nH]ncc3CNCCn3nc(C)cc3C)ccc2c1 | -63.2%
CC12CCC(=O)N1C(C(=O)NNC(=O)COc1ccccc1Cl)CS2 (stereo not shown) | -19.2%
CC1CN(C(=O)COC(=O)[C@@H]2CC(O)CN2S(=O)(=O)c2ccc3c(c2)OCCO3)CC(C)O1 (stereo partly shown) | -1.29%
CCOC(=O)N1CCN(CCCc2ccccc2)CC1 | -6.26%
